Sequences with one replicate were seen in a single cluster, so their values are uncertain.

These results are taken from the supplement of paper PMC10126150.
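Note: ATP exposure 15 min at 22 °C before imaging.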

For this data set, the system named is ATP. The data set is described as follows: switch fluorescence ratio, 500 uM ATP over buffer (Cy3 cluster intensity, sum of 5 cycles each) (fold (ratio)); higher = stronger signal-on switching upon ATP binding; sequences stand for … in TCGTCGGCAGCGTCAGATGTGTATAAGAGACAGTTTTTTTTTTTTTTTTTTTTTTTTT…TC. The conditions noted are these: aptamer strand: ATP DNA aptamer (quencher-CACCTGGGGGAGTATTGCGGAGGAAGG + anchor), 100 nM annealed; ATP concentration: 500 uM; one replicate. In short, it runs like this:
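Cy3-labelled switching-strand clusters on a modified Illumina MiSeq flow-cell were annealed to 100 nM quencher-labelled ATP aptamer and imaged first in selection buffer, then after 15 min with 500 uM ATP at 22 °C. NaOH stripping and re-annealing separated each of five buffer/ATP cycles, and clusters outside 100-1000 RFU were excluded. The fluorescence ratio sums target-cycle Cy3 intensity over buffer-cycle Cy3 intensity per cluster and averages it per switch-domain sequence.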
As for TCGAAGGTCA, the switch fluorescence ratio is 0.983. Turning to GGTGATTGGA, the switch fluorescence ratio worked out at 0.972. In the case of GCTGTACCAA, the switch fluorescence ratio was determined as 1.04. Take CTAGCCGTAG: the switch fluorescence ratio was found to be 0.975. The figure for TATGAGTCTG is 1; for ATCGCCTGCT it is 1.01. For AAGGAACTCT, the switch fluorescence ratio was 0.987. On to GCTTGCTTAT, for which the switch fluorescence ratio came out at 1.01. Under CGCTGATTCC stands 1.29; under CCGAGTTTAA, 1.39; under TGGGCACTTG, 1.04.

Turning to CGAAGCGTGG, the switch fluorescence ratio came out at 1.02.

For the sequence TCGGAGCTGT, the switch fluorescence ratio was 1.57. Under GTCGCACGGT stands 0.978; under CCAACAGTCT, 1.08; under GTCAAAGTTG, 1.15. The figure for GGAAGGGTGC is 1.06; for GAGTGTCTCG it is 1.01; for TCGGCCTGTG it is 0.989.

Turning to ATGGCACTAG, the switch fluorescence ratio is 0.992.

Turning to AAATAGACCA, the switch fluorescence ratio was 0.993. As for CAAGGTCATT, the switch fluorescence ratio was 1.01. TGTGGATCC: the switch fluorescence ratio worked out at 0.978.

Consider TTAGCTTTC, for which the switch fluorescence ratio was determined as 1.12. The figure for ACTAGTATG is 1; for CTTGGCTTCG it is 1.03. With TCGGGCATAT, the switch fluorescence ratio came to 1.12. The figure for ATGCGCTGGA is 1.01; for CGAACGCTGA it is 2.87; for ACTCTGTTTG it is 1.01. Consider TGCCAGCGTA, for which the switch fluorescence ratio was found to be 0.97. The figure for ACTGGACTGC is 1.2; for TGGCAGCGGG it is 1.01.

As for ATCCGGAGG, the switch fluorescence ratio was determined as 0.98. The figure for GGCCCTACGT is 1.03; for AAACGATCAG it is 0.949. Under GTCATTACGG stands 0.997; under ATGTTAACCG, 0.992; under GGGCGACATT, 0.984. Under TGGACGAGTG stands 1.01; under GGCCTTTTGC, 0.969. In the case of TTCCCGGATG, the switch fluorescence ratio was determined as 1.04. Under GCGGCTAGTG stands 0.966; under AGAAACTTAT, 0.998.

In the case of ACCGGGTCTA, the switch fluorescence ratio was determined as 1. Under TAAGCCGGCT stands 1.21. The figure for CGTCAGGGTG is 1.01; for TGTTGCATCA it is 1.01; for ATAAAAATCT it is 1. Under CTGCGGATCA stands 1.01; under TAACGTCCAC, 1.24. For AATTTGGAGA, the switch fluorescence ratio amounted to 0.999. As to ATCATAGAAA, the switch fluorescence ratio was 1. The figure for CGGTTGTAC is 1.16; for GAGAACGAAA it is 1.07; for CGTGTTTGTA it is 1.01. Turning to GAGTGCATAT, the switch fluorescence ratio stood at 1.04. Take AGACATGCGG: the switch fluorescence ratio is 1.

For CATGCGCCTC, the switch fluorescence ratio was determined as 1.89. Consider TTAAGCTATT, for which the switch fluorescence ratio was 1.01. Regarding GTGGGCAAGG, the switch fluorescence ratio worked out at 0.982.

Consider GCTAGCATTA, for which the switch fluorescence ratio is 1. Under CTTATTCAGC stands 0.973.

Turning to AACGCGGTTG, the switch fluorescence ratio is 1.02. Under GATTCGTAAC stands 0.995. Under ACAATTTGTA stands 0.974; under GGTACACGTG, 0.957.
